# Assay results: publication PMC4336329 (PLoS ONE, 2015)
# The campaign covered roughly 310,000 compounds. About 14,000 (4.5%) showed an effect of 50% or more. Effects have a minus sign here. This is one part of the list.
# Molecular target: human ether-à-go-go-related gene (hERG) potassium channel (human, UniProt Q12809)
# Assay: primary screen, population patch clamp on CHO cells stably expressing hERG
# 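Also: peak tail current of the secondary pulse compared with the same well before compound.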
# Chain of human ether-à-go-go-related gene (hERG) potassium channel (Q12809 whole entry, looked up): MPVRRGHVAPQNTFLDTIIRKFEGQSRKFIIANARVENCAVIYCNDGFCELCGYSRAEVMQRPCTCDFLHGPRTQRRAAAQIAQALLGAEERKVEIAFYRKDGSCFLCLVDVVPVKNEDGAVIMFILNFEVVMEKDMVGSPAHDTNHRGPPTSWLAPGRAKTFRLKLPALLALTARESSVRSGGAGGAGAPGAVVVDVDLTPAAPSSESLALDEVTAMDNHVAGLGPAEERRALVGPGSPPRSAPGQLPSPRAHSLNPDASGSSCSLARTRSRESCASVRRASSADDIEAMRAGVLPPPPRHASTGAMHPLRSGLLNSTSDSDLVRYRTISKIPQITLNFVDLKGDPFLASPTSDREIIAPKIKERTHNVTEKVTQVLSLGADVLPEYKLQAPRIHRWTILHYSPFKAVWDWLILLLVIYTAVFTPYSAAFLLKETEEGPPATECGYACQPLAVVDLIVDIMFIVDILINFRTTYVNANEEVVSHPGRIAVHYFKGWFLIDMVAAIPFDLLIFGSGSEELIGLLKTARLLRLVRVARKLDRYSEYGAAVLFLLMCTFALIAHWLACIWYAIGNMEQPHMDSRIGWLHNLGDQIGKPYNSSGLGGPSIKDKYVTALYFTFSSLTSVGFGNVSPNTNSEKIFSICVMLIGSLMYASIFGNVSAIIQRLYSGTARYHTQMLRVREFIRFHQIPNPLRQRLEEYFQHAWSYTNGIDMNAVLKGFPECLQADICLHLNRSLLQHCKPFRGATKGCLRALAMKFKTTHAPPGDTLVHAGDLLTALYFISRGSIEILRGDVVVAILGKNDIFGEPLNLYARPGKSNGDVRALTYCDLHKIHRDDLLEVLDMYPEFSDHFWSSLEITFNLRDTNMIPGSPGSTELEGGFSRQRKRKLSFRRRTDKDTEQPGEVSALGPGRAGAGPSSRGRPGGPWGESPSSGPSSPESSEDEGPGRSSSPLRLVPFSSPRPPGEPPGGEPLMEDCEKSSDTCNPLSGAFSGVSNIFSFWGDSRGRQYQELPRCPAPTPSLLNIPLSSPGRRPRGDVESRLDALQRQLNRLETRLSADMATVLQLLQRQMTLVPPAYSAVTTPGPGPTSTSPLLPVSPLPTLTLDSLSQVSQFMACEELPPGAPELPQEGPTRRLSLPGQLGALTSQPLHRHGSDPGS
row,Compound,"hERG current change (%, negative = inhibition) at 10uM [%]"
1,O=C(Nc1ccccc1N1CCOCC1)c1cc(Cl)c2c(c1)OCO2,19.7
2,CCOC(=O)c1ccccc1NC(=O)c1c(O)c2ccccc2n(CC)c1=O,11.6
3,CC(C)(C)c1ccc(-c2nnc(SCCC#N)n2C2CCCC2)cc1,3.79
4,CCC/C(=C1/C(=O)CC(C)(C)C(C(=O)OC)C1=O)N1CCCC1 (centres unmarked),-7.75
5,Cc1ccc(OC(=O)CN2C(=O)c3ccccc3C2=O)cc1C,26.2
6,COc1cccc(OCC(=O)N2CCC3(CC2)CC(=O)c2ccccc2O3)c1,-55.8
7,S=C(NCCN1CCOCC1)Nc1ccc(-c2nc3ccccc3[nH]2)cc1,12.8
8,CC(C)OP(=O)(OC(C)C)C1(O)C(=O)Nc2ccc(Br)cc21 (centres unmarked),-7.85
9,CCCCNC(=O)N1CCN(C(=O)c2ccco2)CC1,-13.9
10,O=C1c2ccccc2C(=O)N1CCCCN(C(=O)c1cc([N+](=O)[O-])cc([N+](=O)[O-])c1)c1ccc(Cl)cc1,5.87
11,Cc1ccc(/C(CSc2nccn2-c2ncc(C(F)(F)F)cc2Cl)=N\O)cc1,-0.514
12,CC(=O)Nc1ccc(C(=O)CCl)cc1,-11.1
13,C=C(C)C(=O)NNc1ccccc1,18.5
14,Cn1c(COc2ccccc2)nnc1SCCSc1nnc(COc2ccccc2)n1C,-48.9
15,CCOc1c2ccc(C(=O)NCCc3cccs3)cc2nn1CC,-9.69
16,COC(=O)c1nn2c(C(F)(F)F)cc(-c3ccc(Br)o3)nc2c1Br,2.67
17,O=S(=O)(c1cccc2c(S(=O)(=O)N3CCCC3)cccc12)N1CCCC1,3.88
18,O=C(C1CCC1)N1CCN(S(=O)(=O)c2ccc(Br)cc2Cl)CC1,-21.8
19,Cc1cccc(OP(=O)(NCc2ccccc2)Oc2cccc(C)c2)c1,-5.69
20,COc1cc(C(=O)Oc2c(OC)cc(C(=S)N3CCOCC3)cc2OC)cc(OC)c1OC,15.4
21,Cc1nc2cc(N3CCCCC3)c(NC(=O)c3ccncc3)cc2c(=O)n1Cc1ccc(Cl)cc1,21.9
22,Cc1ccc(-c2nsc3c(N4CCC(C(N)=O)CC4)ncnc23)cc1,2.23

row,Compound,"hERG current change (%, negative = inhibition) at 10uM [%]"
1,Cc1ccc(S(=O)(=O)N2CCN(C(=O)CCn3nc(C)c(C)c3C)CC2)cc1,11.1
2,CC(Cc1ccco1)NC(=O)c1cccc(S(=O)(=O)N(C)C)c1 (centres unmarked),5.58
3,Cc1cccc2cc3c(NC(=O)c4ccccn4)nn(C)c3nc12,4.21
4,Cn1c(=O)c2c(nc(SCCCO)n2Cc2ccccc2Cl)n(C)c1=O,-29.2
5,COc1ccc(C2Nc3ccccc3C(=O)N2NS(=O)(=O)c2ccc(C)cc2)cc1OC (centres unmarked),4.14
6,CCOc1ccccc1OCC(=O)Nc1ccccc1C(=O)NC1CC1,3.61
7,FC(F)(F)c1nnc(-c2ccccc2)nc1Oc1ccc(Cl)cc1Cl,19.1
8,CCN1CCN(S(=O)(=O)c2ccc(S(=O)(=O)NCC3CCCO3)cc2)CC1 (centres unmarked),11.5
9,COc1ccc(/C=N/N2CCOCC2)cc1OCc1ccccc1,14.1
10,Cc1cc(NC(=O)c2ccccc2-c2ccccc2C(=O)O)no1,4.5
11,O=C(O)Cn1c(=O)c2cccn2c2ccccc21,12.4
12,COCCNc1nnc(Cc2ccccc2)c(=O)[nH]1,29
13,O=C(CSc1ccc2ccccc2c1)Nc1ccncc1,0.863
14,COc1ccccc1NS(=O)(=O)c1ccc(C(=O)N2CCCC(C(F)(F)F)C2)cc1 (centres unmarked),-19.2
15,CCOc1cc(C2NC(=O)NC(C)=C2C(=O)NCc2ccccc2)c(Cl)cc1O (centres unmarked),-4.98
16,Cn1c(=O)c2nc(NCc3ccccc3)cnc2n(C)c1=O,-1.44
17,CCC(C)N1CCCCC1C(=O)Nc1c(C)cc(C)cc1C.Cl (centres unmarked),-12.7
18,CCCNC(=O)C(Cc1ccc(Cl)cc1)NC(=O)c1ccc(-c2ccccc2)cc1 (centres unmarked),10.9
19,O=C1C(=O)N(CNc2ccccn2)c2ccccc21,15.1
20,Cc1ccc(NC(=O)CCSc2nnc(C)o2)cc1,2.48
21,Cc1cc(C)cc(NC(=O)C2CCN(C(=O)[C@@H]3Cc4ccccc4CN3)CC2)c1,-67.7
22,CCCC(=O)Nc1cc(-c2nc3ncccc3o2)ccc1C,10.1
